To fix the notation:
B1: PhoQ; a variant is named by its letters at X, in order, P23837 (parent)
chain: MKKLLRLFFPLSLRVRFLLATAAVVLVLSLAYGMVALIGYSVSFDKTTFRLLRGESNLFYTLAKWENNKLHVELPENIDKQSPTMTLIYDENGQLLWAQRDVPWLMKMIQPDWLKSNGFHEIEADVNDTSLLLSGDHSIQQQLQEVREDDDDAEMTHSVAVNVYPATSRMPKLTIVVVDTIPVELKSSYMVWSWFIYVLSANLLLVIPLLWVAAWWSLRPIEALAKEVRELEEHNRELLNPATTRELTSLVRNLNRLLKSERERYDKYRTTLTDLTHSLKTPLXXLQXXLRSLRSEKMSVSDAEPVMLEQISRISQQIGYYLHRASMRGGTLLSRELHPVAPLLDNLTSALNKVYQRKGVNISLDISPEISFVGEQNDFVEVMGNVLDNACKYCLEFVEISARQTDEHLYIVVEDDGPGIPLSKREVIFDRGQRVDTLRPGQGVGLAVAREITEQYEGKIVAGESMLGGARMEVIFGRQHSAPKDE

This is one part of the list. Bounds are passed on as bounds.

Drawing on a collection of fitness landscapes (doi:10.1126/science.1257360), this text covers enrichment ratio for 195 variants.

The variants in the assay derive from B1. Briefly: enrichment ratio after two sorts for PhoP signalling (ratio (wild type AVST 3.29)); higher = more functional. Particulars: with PhoP (E. coli).
Consider SGPM, for which the enrichment ratio is not above 0.25.

Take EGCT: the enrichment ratio was not above 0.25.

As for IMLT, the enrichment ratio is not above 0.25.

As to WMWC, the enrichment ratio was not above 0.25.

Consider HKIH, for which the enrichment ratio was not above 0.25.

Turning to VFCG, the enrichment ratio is not above 0.25.

In the case of FEVI, the enrichment ratio was 7.2.

As for MTNM, the enrichment ratio is not above 0.25.

As to QLMW, the enrichment ratio was not above 0.25.

Regarding ATTC, the enrichment ratio turned out to be 3.48.

As to KAYC, the enrichment ratio was not above 0.25.

As to HSNR, the enrichment ratio is not above 0.25.

Turning to NEVW, the enrichment ratio is not above 0.25.

Turning to RCNP, the enrichment ratio was not above 0.25.

Consider GQDM, for which the enrichment ratio is not above 0.25.

As to TVGV, the enrichment ratio turned out to be 5.79.

As for KVGM, the enrichment ratio is not above 0.25.

IYEA: the enrichment ratio was not above 0.25.

KMAW: the enrichment ratio was not above 0.25.

With QTKG, the enrichment ratio was not above 0.25.

For the variant NYLA, the enrichment ratio was not above 0.25.

As for FPQH, the enrichment ratio is not above 0.25.

For the variant EMWD, the enrichment ratio is not above 0.25.

In the case of WYRY, the enrichment ratio was not above 0.25.

On to GFYV, for which the enrichment ratio is not above 0.25.

Turning to QNPI, the enrichment ratio is not above 0.25.

TREQ: the enrichment ratio was not above 0.25.

In the case of AKCP, the enrichment ratio was not above 0.25.

Turning to FNRR, the enrichment ratio is not above 0.25.

Consider AMDV, for which the enrichment ratio was not above 0.25.

For PHWH, the enrichment ratio was not above 0.25.

With KNES, the enrichment ratio was not above 0.25.

Turning to QTGA, the enrichment ratio was not above 0.25.

As to TDPM, the enrichment ratio was not above 0.25.

TSGH: the enrichment ratio stood at 6.

With INVL, the enrichment ratio was not above 0.25.

For LIQL, the enrichment ratio was not above 0.25.

Regarding SCQK, the enrichment ratio was 10.8.

In the case of TDLD, the enrichment ratio was not above 0.25.

Take IMME: the enrichment ratio is not above 0.25.

As for VTDV, the enrichment ratio was not above 0.25.

With YMRL, the enrichment ratio is not above 0.25.

Consider DDDN, for which the enrichment ratio is not above 0.25.

On to SAYR, for which the enrichment ratio was not above 0.25.

With YTRS, the enrichment ratio is 1.21.

For SPHI, the enrichment ratio was not above 0.25.

In the case of SEAK, the enrichment ratio came out at 4.78.

With LQNC, the enrichment ratio was not above 0.25.

As to QDEK, the enrichment ratio is not above 0.25.

On to KSID, for which the enrichment ratio was not above 0.25.

On to FVDD, for which the enrichment ratio was not above 0.25.

HGSW: the enrichment ratio is not above 0.25.

Turning to HWGN, the enrichment ratio was not above 0.25.

For RCVN, the enrichment ratio was 1.31.

For KESI, the enrichment ratio was not above 0.25.

With LFIS, the enrichment ratio is not above 0.25.

For VDEM, the enrichment ratio was not above 0.25.

For the variant WGSA, the enrichment ratio is not above 0.25.

Take EMVM: the enrichment ratio is not above 0.25.

Regarding APTW, the enrichment ratio was not above 0.25.

Take WFGL: the enrichment ratio was not above 0.25.

For FTMW, the enrichment ratio was not above 0.25.

Take VWDT: the enrichment ratio was not above 0.25.

With PAHG, the enrichment ratio was not above 0.25.

As to TING, the enrichment ratio worked out at 13.9.

Consider ACMK, for which the enrichment ratio worked out at 17.8.

For YDYD, the enrichment ratio is not above 0.25.

With LEPS, the enrichment ratio was not above 0.25.

For the variant LKTH, the enrichment ratio is not above 0.25.

Consider DKSW, for which the enrichment ratio is not above 0.25.

On to TDDC, for which the enrichment ratio is not above 0.25.

Consider YKID, for which the enrichment ratio was not above 0.25.

For VVSE, the enrichment ratio is not above 0.25.

Regarding GTHP, the enrichment ratio was not above 0.25.

Take APWY: the enrichment ratio is not above 0.25.

With EWSY, the enrichment ratio was not above 0.25.

For HSYH, the enrichment ratio is not above 0.25.

PNCE: the enrichment ratio is not above 0.25.

As to DKAR, the enrichment ratio is not above 0.25.

Turning to KSCD, the enrichment ratio was not above 0.25.

For the variant ACCR, the enrichment ratio was 2.08.

Take LVKT: the enrichment ratio was not above 0.25.

With FIHY, the enrichment ratio is not above 0.25.

Turning to ATSM, the enrichment ratio turned out to be 16.9.

Consider VMNL, for which the enrichment ratio is not above 0.25.

As to FWWK, the enrichment ratio is not above 0.25.

For the variant HPDI, the enrichment ratio is not above 0.25.

Consider YHPF, for which the enrichment ratio is not above 0.25.

MHCN: the enrichment ratio is not above 0.25.

LYWC: the enrichment ratio came out at 0.693.

YSHW: the enrichment ratio is not above 0.25.

For the variant MHPD, the enrichment ratio was not above 0.25.

Regarding RLWC, the enrichment ratio is not above 0.25.

Consider SFPA, for which the enrichment ratio was not above 0.25.

SHKN: the enrichment ratio was not above 0.25.

Regarding KDGW, the enrichment ratio is not above 0.25.

For the variant SLCS, the enrichment ratio amounted to 9.87.

Consider LFLQ, for which the enrichment ratio was not above 0.25.

PYHL: the enrichment ratio is not above 0.25.

Regarding VTEC, the enrichment ratio is not above 0.25.

On to DLAH, for which the enrichment ratio is not above 0.25.

For GIFA, the enrichment ratio is not above 0.25.

As to HNCP, the enrichment ratio was not above 0.25.

With ILMD, the enrichment ratio is not above 0.25.

As for PMTK, the enrichment ratio was not above 0.25.

With KVHT, the enrichment ratio was not above 0.25.

As to QVAK, the enrichment ratio was not above 0.25.

VIMN: the enrichment ratio was not above 0.25.

With PHNW, the enrichment ratio is not above 0.25.

In the case of TPNR, the enrichment ratio was not above 0.25.

QAIQ: the enrichment ratio is not above 0.25.

Consider CYFH, for which the enrichment ratio is not above 0.25.

As to IAGE, the enrichment ratio was not above 0.25.

Take IPFN: the enrichment ratio is not above 0.25.

For the variant MSER, the enrichment ratio is not above 0.25.

On to IWNP, for which the enrichment ratio is not above 0.25.

In the case of KRYQ, the enrichment ratio was not above 0.25.

As for DEYH, the enrichment ratio is not above 0.25.

As to NFMG, the enrichment ratio is not above 0.25.

Turning to LNQF, the enrichment ratio worked out at 0.521.

With FEPY, the enrichment ratio was not above 0.25.

On to MQPF, for which the enrichment ratio is not above 0.25.

Regarding AIRA, the enrichment ratio is not above 0.25.

As for MSFN, the enrichment ratio is 1.37.

As for FTKN, the enrichment ratio is not above 0.25.

Regarding QEQS, the enrichment ratio is not above 0.25.

For the variant SLYV, the enrichment ratio is not above 0.25.

Regarding RCFC, the enrichment ratio is not above 0.25.

Turning to RIKH, the enrichment ratio was not above 0.25.

As to VLGQ, the enrichment ratio is not above 0.25.

As for HGCA, the enrichment ratio is not above 0.25.

For the variant LEFF, the enrichment ratio is not above 0.25.

As to SVVC, the enrichment ratio is 2.15.

For WQVS, the enrichment ratio is not above 0.25.

Turning to GAYK, the enrichment ratio was not above 0.25.

Turning to PMQI, the enrichment ratio is not above 0.25.

WWGR: the enrichment ratio was not above 0.25.

Turning to APTQ, the enrichment ratio is not above 0.25.

Regarding HHVF, the enrichment ratio is not above 0.25.

For GIWP, the enrichment ratio is not above 0.25.

Consider VHGK, for which the enrichment ratio is not above 0.25.

Take EERF: the enrichment ratio is not above 0.25.

In the case of YKHQ, the enrichment ratio was not above 0.25.

In the case of GMIY, the enrichment ratio was not above 0.25.

Turning to RVLH, the enrichment ratio is not above 0.25.

On to GRLM, for which the enrichment ratio was 0.324.

Turning to IHIN, the enrichment ratio was not above 0.25.

For the variant HQRG, the enrichment ratio was not above 0.25.

As to GMIS, the enrichment ratio is not above 0.25.

For the variant TMCR, the enrichment ratio was found to be 20.7.

Regarding PMLN, the enrichment ratio is not above 0.25.

As to ADAF, the enrichment ratio is not above 0.25.

Turning to RNEF, the enrichment ratio is not above 0.25.

For WFTP, the enrichment ratio was not above 0.25.

FNAY: the enrichment ratio is not above 0.25.

NNGY: the enrichment ratio was not above 0.25.

Consider YYLW, for which the enrichment ratio is not above 0.25.

In the case of YPTQ, the enrichment ratio is not above 0.25.

As to IITW, the enrichment ratio was not above 0.25.

Consider SMPP, for which the enrichment ratio was not above 0.25.

YPHN: the enrichment ratio was not above 0.25.

For the variant PLPR, the enrichment ratio is not above 0.25.

For PKKG, the enrichment ratio is not above 0.25.

Consider FYFT, for which the enrichment ratio is not above 0.25.

In the case of AESM, the enrichment ratio amounted to 11.2.

VCAW: the enrichment ratio was not above 0.25.

On to EFYE, for which the enrichment ratio was not above 0.25.

For the variant DMVQ, the enrichment ratio was not above 0.25.

Turning to ELTC, the enrichment ratio was not above 0.25.

As for ATWM, the enrichment ratio was not above 0.25.

AIVY: the enrichment ratio is 4.39.

On to PIRV, for which the enrichment ratio is not above 0.25.

Regarding HKAT, the enrichment ratio was not above 0.25.

With ENPI, the enrichment ratio was not above 0.25.

Take CRSV: the enrichment ratio is not above 0.25.

Take QKCG: the enrichment ratio was not above 0.25.

Turning to IMWY, the enrichment ratio is not above 0.25.

Consider SIAS, for which the enrichment ratio is 7.5.

For the variant PIVS, the enrichment ratio is not above 0.25.

ITLC: the enrichment ratio stood at 2.87.

Turning to PSIH, the enrichment ratio is not above 0.25.

Regarding DFPF, the enrichment ratio was not above 0.25.

As to YNWP, the enrichment ratio is not above 0.25.

Take PISD: the enrichment ratio is not above 0.25.

As to NFCG, the enrichment ratio is not above 0.25.

Consider GPTT, for which the enrichment ratio is not above 0.25.

Consider LKQK, for which the enrichment ratio is not above 0.25.

Take YLYL: the enrichment ratio is not above 0.25.

Consider DMPW, for which the enrichment ratio was not above 0.25.

As to HCCL, the enrichment ratio is not above 0.25.

Take GPWL: the enrichment ratio is not above 0.25.

With SQWG, the enrichment ratio was not above 0.25.

As for YADF, the enrichment ratio was not above 0.25.

GVTP: the enrichment ratio was not above 0.25.

Regarding LIKI, the enrichment ratio was not above 0.25.
